In publication PMC11335249 one finds binding data, which are given here for six substances.

Chains of the proteins cited; added tags and fusions are not shown.
UniProt Q14457: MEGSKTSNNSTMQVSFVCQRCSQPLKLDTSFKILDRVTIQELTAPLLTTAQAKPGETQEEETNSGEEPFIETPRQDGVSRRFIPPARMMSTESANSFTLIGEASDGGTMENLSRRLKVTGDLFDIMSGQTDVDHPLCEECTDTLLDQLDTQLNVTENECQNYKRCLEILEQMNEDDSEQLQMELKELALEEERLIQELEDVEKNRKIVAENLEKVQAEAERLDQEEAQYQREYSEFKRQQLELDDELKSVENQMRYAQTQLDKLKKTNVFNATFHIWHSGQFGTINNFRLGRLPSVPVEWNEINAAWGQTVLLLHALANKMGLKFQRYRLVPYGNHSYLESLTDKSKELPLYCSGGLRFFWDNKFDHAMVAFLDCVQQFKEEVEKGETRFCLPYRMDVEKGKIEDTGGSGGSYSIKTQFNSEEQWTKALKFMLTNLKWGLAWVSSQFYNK
UniProt P10415: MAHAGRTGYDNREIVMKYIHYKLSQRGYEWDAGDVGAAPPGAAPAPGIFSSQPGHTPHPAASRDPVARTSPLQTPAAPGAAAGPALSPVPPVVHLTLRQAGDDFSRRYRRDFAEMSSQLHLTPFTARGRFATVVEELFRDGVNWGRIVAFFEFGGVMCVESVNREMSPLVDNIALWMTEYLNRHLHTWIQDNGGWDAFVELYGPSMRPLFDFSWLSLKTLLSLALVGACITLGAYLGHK

Substitutions are numbered along the chain they refer to. No constants are given. Whether binding was seen depends on the method and setting. In cells and extracts the contact can be indirect. Some binding calls cover weakened binding; strength is not graded here. For part of these data: Where a sequence is shown, tags or fusion partners need not be part of it.

Assay [1] has as its target T1, TMEM9 N38Q, flag-tagged (human) (UniProt Q9P0T7).
T1 sequence: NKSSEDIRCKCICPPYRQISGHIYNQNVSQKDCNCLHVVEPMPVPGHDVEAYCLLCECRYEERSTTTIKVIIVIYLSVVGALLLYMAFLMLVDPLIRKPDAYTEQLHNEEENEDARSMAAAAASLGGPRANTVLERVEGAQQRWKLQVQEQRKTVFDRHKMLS
Briefly: co-IP; HEK293T co-transfected with Beclin1-HA and flag-tagged TMEM9 (WT or point mutants); IP with Flag-M2 / anti-flag beads; blots with anti-HA and anti-flag; basal medium or EBSS for 6 h.

In assay [2] the target is T2, TMEM9 N21Q, flag-tagged (human) (UniProt Q9P0T7).
T2 sequence: T1 sequence with N1Q, Q18N
The description is as above.

Assay [3] has as its target T3, TMEM9 2SA (S137A/S144A), flag-tagged (human) (UniProt Q9P0T7).
T3 sequence: T1 sequence with Q18N, S117A, S124A
The assay is described as above.

Assay [4] deals with T4, TMEM9 S137D, flag-tagged (human) (UniProt Q9P0T7).
T4 sequence: T1 sequence with Q18N, S117D
The description is as above.

For the next assay, the target named is TMEM9-WT-flag (human) (UniProt Q9P0T7). Described as above.
For assay [5], the target named is T5, TMEM9 S144A, flag-tagged (human) (UniProt Q9P0T7).
T5 sequence: T1 sequence with Q18N, S124A
Described as above.

The target in assay [6] is T6, TMEM9 S137A, flag-tagged (human) (UniProt Q9P0T7).
T6 sequence: T1 sequence with Q18N, S117A
The description is as above.

The next assay has as its target T7, TMEM9-3NQ-flag (human) (UniProt Q9P0T7).
T7 sequence: T1 sequence with N1Q, N27Q
Described as above.

In assay [7] the target is T8, TMEM9 2SD (S137D/S144D), flag-tagged (human) (UniProt Q9P0T7).
T8 sequence: T1 sequence with Q18N, S117D, S124D
The description is as above.

For assay [8], the target named is T9, TMEM9 S144D, flag-tagged (human) (UniProt Q9P0T7).
T9 sequence: T1 sequence with Q18N, S124D
The description is as above.

In assay [9] the target is T10, TMEM9 N47Q, flag-tagged (human) (UniProt Q9P0T7).
T10 sequence: T1 sequence with Q18N, N27Q
The description is as above.

In assay [10] the target is Beclin1-flag (human) (UniProt Q14457). Briefly: co-IP; HEK293T co-transfected with TMEM9-HA, Beclin1-flag and Bcl-2 as indicated; basal medium or EBSS for 6 h; IP with anti-FLAG antibody; blots with anti-flag, anti-HA and anti-Bcl2.
Assay [11] shares this target. The assay is described as follows: co-IP; HEK293T co-transfected with TMEM9-HA and Beclin1-flag; IP with Flag-M2 magnetic beads; blots with antibodies against TMEM9, Beclin1 and Rab9; lysis in modified RIPA buffer (1% CHAPS).
Another assay addresses GST-TMEM9 (human) (UniProt Q9P0T7). The assay is described as follows: pull-down; GST-TMEM9 immobilised on Glutathione Sepharose 4B and incubated with 35S-labelled in vitro translated Beclin1; binding buffer 20 mM Tris-HCl pH 7.2, 0.15 M NaCl, 0.2% Triton X-100; SDS-PAGE and autoradiography; only the target purified.
The target of a further assay is TMEM9-VC (human) (UniProt Q9P0T7). The assay is described as follows: split reporter; BiFC with Venus fragments (VN, VC) in HeLa cells, 37 °C for 24 h, fixed with 4% PFA, confocal microscopy.
The target in assay [12] is T11, TMEM9 90-183 (TMEM9 ΔN), HA-tagged (human) (UniProt Q9P0T7).
T11 sequence: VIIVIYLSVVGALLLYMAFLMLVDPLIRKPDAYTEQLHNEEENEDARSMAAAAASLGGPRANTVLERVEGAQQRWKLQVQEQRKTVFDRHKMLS
The assay is described as follows: co-IP; HEK293T co-transfected for 48 h with HA-tagged TMEM9 (or deletion mutants) and Beclin1-flag (or deletion mutants); IP with anti-HA antibody; blots with anti-flag and anti-HA.

The target of a further assay is TMEM9-HA (human) (UniProt Q9P0T7). The description is as above.

As for Beclin1-HA (from UniProt Q14457 1-450), the binding result (in assay [1]; in assay [2]; in assay [3]; in [4]; with TMEM9-WT-flag (human); in [5]) was “binds” throughout. Besides, the binding result is on record as “binds” in assay [6]; “no binding” with TMEM9-3NQ-flag (human); “binds” in assay [7]; “binds” in assay [8]; “binds” in assay [9].

For the substance Bcl-2 (from UniProt P10415 1-239), in the assay with Beclin1-flag (human) [10], the binding entry is given as “binds”.

Consider TMEM9-HA (from UniProt Q9P0T7 21-183), for which the binding entry with Beclin1-flag (human) [11] and in the assay with Beclin1-flag (human) [10] was “binds” in each case.

Regarding “35S-Met-labeled Beclin1 (from UniProt Q14457 1-450)”, the binding entry with GST-TMEM9 (human) is on record as “binds”.

VN-Beclin1 (from UniProt Q14457 1-450): the binding result with TMEM9-VC (human) was “binds”.

As for “Beclin1-flag (from UniProt Q14457 1-450)”, the binding result (in assay [12]; with TMEM9-HA (human)) was “binds” in each case.
